According to PubChem BioAssay AID2101 (National Center for Advancing Translational Sciences (NCATS), 2009):
Among all 330,000 compounds or so, about 300 (0.091%) were called active. This list was built around the results that the source calls inconclusive (neither active nor inactive); the mix of calls is not that of the screen. The call rests on the fitted dose curve; in most records, active means well fitted inhibition curve with a large enough effect; inconclusive means small, poorly fitted or top-dose-only effect, or effect the other way, or another doubt; inactive means no such curve, though single readings can be large or run the other way. No potency is given beside an inconclusive call; the fits are too rough.

molecular target: Lysosomal acid glucosylceramidase (Homo sapiens) (UniProt P04062); test: qHTS Assay for Inhibitors and Activators of N370S glucocerebrosidase as a Potential Chaperone Treatment of Gaucher Disease; details: N370S GC spleen homogenate, 4MU-glucoside fluorescence; activity change, negative = inhibition: at 59.4 µM (top of the series) unless noted;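 on activity change, negative = inhibition: 0% = full enzyme activity and -100% = no enzyme basal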
Potency means the concentration at half of the fitted maximal effect.

Compound	Potency	activity change, negative = inhibition
O=C(Nc1sc2c(c1-c1nc3ccccc3[nH]1)CCCC2)C1CCCC1	inconclusive [activator, partial curve]	
COc1cccc(/C=N/NC(=O)c2cccc(N3CCCC3=O)c2)c1		inactive: -2.32%
Cc1cc(=O)oc2c3c(cc(OCC(=O)NCCCn4ccnc4)c12)OC(C)(C)CC3	inconclusive [activator, single point]	
CCOC(=O)Nc1ccc2c(c1)N(C(=O)N(C)C)c1ccccc1CC2	inconclusive [activator, partial curve]	
O=c1[nH]c2cc(C(F)(F)F)ccc2n1-c1cc(C(F)(F)F)ccc1O	inconclusive [activator, partial curve]	
CCCCCCCCCCCC		inactive: -2.43%
O=C(Nc1ccncc1)C1c2ccccc2Oc2ccccc21	inconclusive [inhibitor, single point]	
O=C(OCCCCOC(=O)c1ccccc1)c1ccccc1	inconclusive [activator, partial curve]	
Cc1ccc(-c2ccc(/C=C3/NC(=O)NC3=O)o2)cc1[N+](=O)[O-]	inconclusive [inhibitor, single point]	
CCN(CC)C(=O)c1ccccc1NS(=O)(=O)c1ccc(C)cc1		inconclusive: 30.4% [activator]
Cc1cccc(C)c1N/C=C/c1onc(C)c1[N+](=O)[O-]		inactive: 5.87%
CC1CN(C(=O)c2cc(-c3ccc(Cl)s3)nc3ccccc23)CC(C)O1 (stereo unspecified)	inconclusive [activator, single point]	
CCOc1ccc(C2NC(=S)NC3=C2CCc2ccccc23)cc1 (stereo unspecified)	inconclusive [inhibitor, single point]	
Cc1nn(CCCC(=O)NCCc2ccc(Cl)cc2)c(=O)c2nn(-c3ccccc3)c(C)c12	inconclusive [inhibitor, full curve, poor fit]	
COc1ccc(NC2CC(=O)NC2=O)cc1 (stereo unspecified)		inactive: 7.56%
CN(C)C(CNc1ccc(C(F)(F)F)cc1[N+](=O)[O-])c1ccccc1 (stereo unspecified)	inconclusive [inhibitor, full curve, poor fit]	
COc1ccccc1-c1ccc2ncnc(N3CCNCC3)c2c1	inconclusive [activator, partial curve]	
COc1ccc(C(CNC(=O)C(C)Oc2ccc(Br)cc2)N2CCOCC2)cc1 (stereo unspecified)	inconclusive [inhibitor, partial curve]	
Cc1ccc(NC(=O)Cc2nc(CSc3nnc(-c4ccc5c(c4)OCO5)o3)cs2)cc1	inconclusive [activator, partial curve]	
CCOC(=O)C/C(C)=N/NC(=O)Nc1ccccc1	inconclusive [activator, partial curve]	
COC(=O)C1=C(C)NC(C)=C(C(=O)OCCCN2CCC(c3ccccc3)(c3ccccc3)CC2)C1c1cccc([N+](=O)[O-])c1 (stereo unspecified)	inconclusive [inhibitor, single point]	
N/C(=N\OC(=O)c1ccc(Br)cc1)c1cccc([N+](=O)[O-])c1		inactive: 1%

Compound	Potency	activity change, negative = inhibition
COc1ccc(CCN2CC(C(=O)NCCc3ccc(C(F)(F)F)cc3)CCC2=O)cc1 (stereo unspecified)	inconclusive [inhibitor, partial curve]	
N#Cc1c(N)n(CCc2ccc(F)cc2)c2nc3ccccc3nc12	inconclusive [activator, partial curve]	
Fc1ccc(N2N=C(c3cccs3)CC2c2ccccc2)cc1 (stereo unspecified)	inconclusive [activator, partial curve]	
CN(C)CCCN(C(=O)c1ccc(S(=O)(=O)N2CCc3ccccc32)cc1)c1nc2c(Cl)cccc2s1	inconclusive [inhibitor, single point]	
Cc1ccc(-c2nnn(CC(=O)N(c3ccccc3F)C(CC(C)C)C(=O)NCC3CCCO3)n2)cc1 (stereo unspecified)	inconclusive [activator, partial curve, poor fit]	
Cc1cc(S(=O)(=O)Nc2ccc(C(=O)NCC(c3ccco3)N3CCCCC3)cc2)ccc1F (stereo unspecified)	inconclusive [inhibitor, partial curve]	
Cc1c(-c2ccc(Cl)cc2Cl)nc2ccccc2c1C(=O)NCCN1CCOCC1	inconclusive [inhibitor, single point]	
CN(C)C(=O)c1ccc(-c2nc(Nc3ccccc3)c3ccccc3n2)cc1	inconclusive [inhibitor, partial curve]	
CCCCc1nc(NCC2CCCO2)c(C#N)c2c1COC(C)(C)C2 (stereo unspecified)		inactive: 2.98%
c1ccc2c(c1)nc1n2CCN1CCNC1CCCCC1	inconclusive [inhibitor, partial curve, poor fit]	
Cc1ccc(NC(=O)Nc2ccc3c(c2)CCC3)cc1C		inactive: -6.9%
CCCN1CCCc2cc(CN(CCCN3CCOCC3)C(=O)Nc3ccc(OCC)cc3)ccc21	inconclusive [inhibitor, partial curve]	
CC(=O)c1cc2c(=O)c3cc(C)ccc3oc2nc1C		inactive: 6.54%
COc1cccc(CSCC(=O)NCCc2ccccc2)c1OC	inconclusive [inhibitor, single point]	
CCc1ccc(Nc2cc(C(=O)NCCCN3CCOCC3)c3ccccc3n2)cc1	inconclusive [inhibitor, single point]	
FC(F)Oc1ccc(NC(=S)N2CCN(Cc3ccccc3)CC2)cc1		inactive: -6.19%
COc1cccc(OCc2cc(C3Nc4ccccc4C(=O)N3Cc3ccco3)ccc2OC)c1 (stereo unspecified)	inconclusive [activator, single point]	
OC(c1cc(-c2ccc(C(F)(F)F)cc2)nc(C(F)(F)F)c1)C1CCCCN1 (stereo unspecified)	inconclusive [inhibitor, partial curve]	
NC(=O)c1ccc2c(=O)c(O)c(-c3cc(Cl)c(N)c(Cl)c3)[nH]c2c1	inconclusive [activator, single point]	
COC(=O)c1ccccc1NC(=O)C12CC3CC(C1)CC(n1cnc(Cl)n1)(C3)C2	inconclusive [activator, single point]	
COc1cc2nc(N3CCN(C(=O)[C@@H]4CCCO4)CC3)nc(N)c2cc1OC	inconclusive [activator, partial curve]	
CC(C)OCCCn1c(=N)c(C(N)=S)cc2c(=O)n3ccccc3nc21		inactive: 11.1%

Compound	Potency	activity change, negative = inhibition
COc1ccc(C2CC(=O)C3=C(C2)Nc2ncnn2C3c2ccccc2)cc1 (stereo unspecified)	inconclusive [activator, partial curve]	
CC(=O)Nc1cc(NC(C)=O)c2nc(N)sc2c1	inconclusive [inhibitor, full curve, poor fit]	
Cc1coc2c1c(C)cc1oc(=O)c(CC(=O)N[C@H](C(=O)O)C(C)C)c(C)c12	inconclusive [activator, single point]	
COc1ccc2cc3cc(C(=O)NC4CC4)sc3nc2c1	inconclusive [activator, single point]	
COc1ccc(C2C3=C(CC(C)(C)CC3=O)Oc3ncn(Cc4ccccc4)c(=N)c32)cc1 (stereo unspecified)	inconclusive [activator, partial curve, poor fit]	
Cc1cccc(C)c1NC(=O)c1c(O)c2ccccc2[nH]c1=O	inconclusive [activator, partial curve]	
CC(C)(C)NC(=O)CCN(/N=C/c1ccncc1)C1=NS(=O)(=O)c2ccccc21	inconclusive [inhibitor, full curve, poor fit]	
COC(=O)CNC(=O)CCc1nnc(C2(c3ccc(Cl)cc3)CCC2)o1		inactive: -2.98%
COc1ccccc1C1c2ccc3ccccc3c2Oc2ncn(CCCO)c(=N)c21 (stereo unspecified)	inconclusive [inhibitor, partial curve]	
O=C(CSc1nc(-c2ccccc2)cc(=O)[nH]1)Nc1ccccn1	inconclusive [activator, full curve]	
Cn1c(-c2ccccc2)c(C(=O)CCl)c2ccccc21	inconclusive [activator, partial curve]	
O=C1COc2ccc(S(=O)(=O)N3CCC(C(=O)NCc4ccccc4)CC3)cc2N1	inconclusive [inhibitor, single point]	
CCCCc1cc(=O)oc2cc(OCC(=O)NCCN3CCOCC3)c(Cl)cc12		inactive: -4.35%
N#Cc1c(C(F)(F)F)cc(-c2ccc(Cl)cc2)[nH]c1=O	inconclusive [activator, partial curve]	
COc1ccc(C(=O)N2N=C(c3cccs3)CC2c2ccccc2O)cc1 (stereo unspecified)	inconclusive [activator, partial curve]	
Cc1c(CC(=O)N2C[C@H]3C[C@@H](C2)c2cccc(=O)n2C3)c(=O)oc2cc3occ(C(C)(C)C)c3cc12	inconclusive [activator, single point]	
CCOc1ccc2nc(NCCCO)[nH]c2c1	inconclusive [inhibitor, partial curve]	
O=C(N/N=C/c1c(F)cccc1Cl)c1cc(C2CC2)[nH]n1		inactive: 7.15%
COc1ccccc1NC(=O)c1ccccc1Oc1ccccc1	inconclusive [activator, single point]	
CCOC(=O)CNc1c(-c2ccc(O)cc2)nc2ccccn12		inactive: -10.3%
CC(=O)n1c2ccccc2c2ccccc21		inactive: -4.68%
CCCn1nnc(NC(=O)c2ccc(Br)cc2)n1		inconclusive: 29.5% [activator]
